In PubChem BioAssay AID2675 (National Center for Advancing Translational Sciences (NCATS), 2010):
Out of some 280,000 compounds screened, about 100 (0.036%) were called active. Inconclusive means that the source gave no clear call. Such entries were picked first, then a sample of the others. The call rests on the fitted dose curve; in most records, active means well fitted inhibition curve with a large enough effect in the signal ratio, with a control signal flat (not every such curve was filed as active); inconclusive means small, poorly fitted or top-dose-only effect, or effect the other way, or a change in a side signal; inactive means no such curve, though single readings can be large or run the other way; the % refers to the signal ratio. Potencies beside an inconclusive call are fits to weak or partial responses and may not hold up. “Side channel” marks fits to a control or component signal instead of the main read-out.

Each compound was assayed against Muscleblind-like protein 1 (Homo sapiens) (UniProt Q9NR56) (assay: qHTS Assay for Inhibitors of MBNL1-poly(CUG) RNA binding). Conditions: TR-FRET MBNL1-His/biotin-(CUG)12 binding, 665/545 ratio; activity change, negative = inhibition: at 57.5 µM (top of the series).
UniProt Q9NR56, sequence (Q9NR56 whole entry, looked up): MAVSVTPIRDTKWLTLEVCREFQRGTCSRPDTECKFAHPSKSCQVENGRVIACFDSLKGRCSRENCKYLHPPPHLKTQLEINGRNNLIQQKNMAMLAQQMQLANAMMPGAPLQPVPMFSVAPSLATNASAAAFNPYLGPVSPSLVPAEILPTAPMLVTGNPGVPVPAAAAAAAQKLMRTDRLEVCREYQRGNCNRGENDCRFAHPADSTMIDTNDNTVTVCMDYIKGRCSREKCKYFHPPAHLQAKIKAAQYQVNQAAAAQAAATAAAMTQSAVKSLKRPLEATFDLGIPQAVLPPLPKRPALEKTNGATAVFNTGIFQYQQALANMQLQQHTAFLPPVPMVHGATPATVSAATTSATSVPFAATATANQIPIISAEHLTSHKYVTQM
Method in brief: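 His-tagged MBNL1 binding to biotinylated (CUG)12 RNA was measured by TR-FRET using terbium anti-His antibody (0.055 ng/ul final) and streptavidin-XL665 (5 nM final). Compounds were titrated 92 nM to 58 uM; 60 min at room temperature.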
On the % scale 0 is the no-effect control and ±100 the full control effect; potency means the concentration at half of the fitted maximal effect; tags describe the fitted curve by direction and shape or compound fluorescence and quenching.

Compound	Potency	activity change, negative = inhibition
COCC(=O)N1CCN(c2ccc([N+](=O)[O-])cc2)CC1	inconclusive: 17.8 µM [quencher, side channel, partial curve]	–
Cc1ccc(NC(=O)CSc2sc3c(O)cc(=O)[nH]c3c2C#N)c(F)c1	inconclusive: 25.1 µM [quencher, side channel, single point]	–
Cc1nn(C)c(C(=O)Nc2ccc(Cn3cccn3)cc2)c1[N+](=O)[O-]	–	inactive: 16.7%
CCOC(=O)C1=C(C)N=c2s/c(=C/c3cccc([N+](=O)[O-])c3O)c(=O)n2C1c1cc(OC)c(OC)c(OC)c1 (stereo not given)	inconclusive: 14.1 µM [quencher, side channel, partial curve]	–
Cc1[nH]n(C)c(=O)c1C(=O)c1c(-c2c(Cl)cccc2Cl)noc1C	inconclusive: 100 µM [inhibitor, partial curve, poor fit]	–
Cc1cccc(CSCCNC(=O)CSCc2ccc([N+](=O)[O-])cc2)c1	–	inactive: -13.3%
O=C(C1CC1)N1CCN(c2ccc([N+](=O)[O-])cc2-n2cccc2)CC1	inconclusive: 35.5 µM [quencher, side channel, partial curve]	–
O=C(Nc1ccccc1)/C(=C/c1ccc([N+](=O)[O-])cc1)NC(=O)c1ccccc1	inconclusive: 3.16 µM [inhibitor, full curve, poor fit]	–
O=C(C=C1SCCS1)/C=C/c1ccco1	inconclusive: 15.8 µM [quencher, side channel, partial curve]	–
COC(=O)C(Cc1ccc(OC(=O)c2ccccc2C)cc1)N1Cc2ccccc2C1=O (stereo not given)	inconclusive: 0.158 µM [quencher, side channel, full curve, poor fit]	–
Cc1ccc(/C=C2/NC(=O)N(Cc3ccccc3F)C2=O)s1	–	inactive: -0.75%
CCNC(=O)COC(=O)c1cc(-c2ccc(OC)cc2)nc2ccccc12	inconclusive: 12.6 µM [quencher, side channel, partial curve]	–
COc1ccc(S(=O)(=O)n2[nH]c(=O)c(CCO)c2C)c([N+](=O)[O-])c1	inconclusive: 10 µM [quencher, side channel, partial curve]	–
O=C(O)c1ccc(-c2nc(-c3ccccc3)c(-c3cccs3)[nH]2)cc1	inconclusive: 39.8 µM [quencher, side channel, single point]	–
O=[N+]([O-])c1ccc(S(=O)(=O)NCC(c2cccnc2)N2CCOCC2)cc1 (stereo not given)	inconclusive: 14.1 µM [quencher, partial curve]	–
CCOC(=O)C1=C(C)NC(=S)NC1c1ccc(OCC(=O)N2CCCCC2)cc1 (stereo not given)	–	inactive: 2.25%
c1ccc2c(c1)nnn1c3ccccc3nc21	inconclusive: 17.8 µM [quencher, side channel, partial curve]	–
COc1ccc(/C=C(\NC(=O)c2ccccc2)C(=O)N/N=C/c2cccnc2)cc1	inconclusive: 12.6 µM [quencher, side channel, partial curve]	–

Compound	Potency	activity change, negative = inhibition
C/C(CC(=O)Nc1ccc([N+](=O)[O-])cc1)=N/NC(=O)C1C2CCCCC21 (stereo not given)	inconclusive: 12.6 µM [quencher, side channel, partial curve]	–
CN(C)C(=O)c1ccc2c(c1[N+](=O)[O-])C(=O)c1ccccc1C2=O	inconclusive: 3.55 µM [quencher, side channel, full curve]	–
N#CC1=C(N)C(C#N)(C#N)[C@H](c2cccnc2)[C@H]2CN(C(=O)OCc3ccccc3)CC=C12	–	inactive: 29.9%
CCOC(=O)C1C(=O)C=C(c2ccc([N+](=O)[O-])cc2)CC1c1ccccc1 (stereo not given)	inconclusive: 25.1 µM [quencher, side channel, partial curve, poor fit]	–
Nc1c(-c2cccc([N+](=O)[O-])c2)nc2ccccn12	inconclusive: 3.55 µM [quencher, side channel, partial curve]	–
CN(CC(=O)Nc1ccc(N2CCOCC2)cc1)CC(=O)Nc1ccc(Cl)cc1[N+](=O)[O-]	inconclusive: 12.6 µM [quencher, side channel, partial curve]	–
O=C(NNC(=S)NC(=O)c1ccccc1[N+](=O)[O-])c1ccccc1[N+](=O)[O-]	inconclusive: 20 µM [quencher, side channel, partial curve]	–
CS(=O)(=O)N1CCN(c2ccc(C(=O)N3CCOCC3)cc2[N+](=O)[O-])CC1	inconclusive: 31.6 µM [quencher, side channel, single point]	–
CCOc1ccc2nc(C)cc(Nc3ccc(N4CCOCC4)cc3)c2c1	inconclusive: 25.1 µM [quencher, side channel, partial curve]	–
O=C(O)CCCCCCCCc1cn(CN2C(=O)c3ccccc3C2=O)nn1	inconclusive: 25.1 µM [quencher, side channel, partial curve]	–
COc1ccccc1/C=C/C=N/NC(=O)c1ccncc1	inconclusive: 31.6 µM [quencher, side channel, partial curve, poor fit]	–
Cc1ccc(C(=O)O/N=C(\N)c2cccc([N+](=O)[O-])c2)cc1	inconclusive: 15.8 µM [quencher, side channel, partial curve]	–
NC(=O)CC[C@@H]1NC(=O)[C@@H]2CCCN2C(=O)c2cc([N+](=O)[O-])cc(I)c2NCCC[C@@H](C(N)=O)NC1=O	inconclusive: 17.8 µM [quencher, side channel, partial curve]	–
Cc1ccccc1C(=O)NNc1ccc([N+](=O)[O-])cc1	inconclusive: 15.8 µM [quencher, side channel, partial curve]	–
CCN1C(=O)c2cccc3c(S(=O)(=O)NCC4CCCO4)ccc1c23 (stereo not given)	inconclusive: 11.2 µM [quencher, partial curve]	–
Cc1ccc(S(=O)(=O)CCC(=O)c2cccc([N+](=O)[O-])c2)cc1	inconclusive: 7.94 µM [quencher, partial curve]	–
O=[N+]([O-])c1cccc(/C=N/Nc2nc(N3CCOCC3)nc(N3CCOCC3)n2)c1	–	inactive: 20.6%
